Measured values: the supplement of paper PMC4466236
Whole data set: some 33,000 sequences, median “E-score (dimensionless, -0.5 to 0.5)” near -0.058, cut for the highest 2% near 0.35. Some of the results follow.

What follows are sequences tested on MvaT (assay: PBM 8-mer E-score (mean of HK and ME arrays) (E-score (dimensionless, -0.5 to 0.5)); higher = stronger relative binding preference; most listed sequences are background and not binding sites).
How it was run: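 Full-length P. aeruginosa MvaT, with glutathione S-transferase fused to its N-terminus (cloned into pTH6838 by isothermal assembly), was tested by protein binding microarray using a previously described protocol. Two universal double-stranded 60-mer arrays (ME and HK) were used, each with a constant 25-mer primer region and a variable 35-mer region covering all 8-mers. The rank-based 8-mer E-score (-0.5 to 0.5) is the mean of the two arrays, parsed with a custom Python script.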

Sequence	PBM 8-mer E-score
AAAGCCCG	-0.248
CGGTGCCA	-0.237
AACTATCA	0.274
CTGCGCGC	-0.273
GTATTACA	0.224
AGATGGCA	-0.156
ACCTGAGC	-0.27
ACTCAGAT	0.101
ACGATTAA	0.19
TCCGCGCA	-0.154
AAAGGTGG	0.000476
ACGGCCTA	-0.163
CCAGGGAC	-0.226
ATGTCTTC	0.0651
ACCCAAAC	0.192
ATCCCCAC	-0.248
CTAGTGAA	-0.132
ATTCTTTG	0.116
ATTAAGGA	0.183
AGCTGCGA	-0.0661
GCCATTCA	0.0412
GCTGATGA	-0.137

Sequence	PBM 8-mer E-score
ACCTTCGC	-0.239
CAGCGGAG	-0.203
GACCGGAC	-0.168
CTCTAATC	0.117
CACGAGTC	-0.188
CAAACGAG	-0.112
ATATTGAA	0.331
AATCATAG	0.11
CAACAGCA	-0.0323
GTTCGTGA	-0.073
AAGAGGCC	-0.121
AGCGCCCT	-0.282
GGTAGACC	-0.263
GTGACCGA	-0.0854
GACCGACC	-0.215
CAAAGTGG	-0.168
AGTACGTA	0.0272
ACGAAGCG	-0.226
CACCACTG	-0.187
ATCGACGA	-0.042
CCGACTAC	-0.231
CAGGTCCA	-0.224

Sequence	PBM 8-mer E-score
CTTGCGCC	-0.238
CACTAGCA	-0.205
AGATACGA	-0.0933
ATGGGCTG	-0.231
GTAACGAC	0.0549
CATTCTTC	0.104
TACCAAAA	0.207
CAGCCCAA	-0.201
CCCACTGC	-0.243
GGCCACGA	-0.266
TAGCTCCA	-0.00477
AGTGGCGG	-0.0347
CGAACCGA	-0.153
TCGTGCCA	-0.178
TCGGCCAA	-0.19
CGAATGGC	-0.241
CAGGGACG	-0.279
CCACTTTC	-0.0573
ACAGGCCC	-0.155
AACTAAAT	0.351
AATCACCA	0.0931
CCTCTTCA	-0.223

Sequence	PBM 8-mer E-score
ATAAGTAA	0.371
GTGAGCCA	-0.186
ATAAATAA	0.442
CAATGGAA	-0.0495
AACTTGCA	0.263
GCCCCTGA	-0.355
ACGGTTTG	-0.104
CGGGATCC	-0.211
CCGTGAAA	-0.0413
CTTTACTA	0.0718
ACATCATA	0.146
CCATCCCC	-0.185
CACATGCG	-0.283
AATTAGCC	0.191
AGATTATG	0.189
AGCGTGGG	-0.186
CCGGTCCC	-0.0879
ATTACGAG	0.228
CTCTTAGA	0.0454
TCGTCACA	-0.0375
